# Test results published in the supplement of paper PMC12217912.
# The list shows a part of the results. Sequences were assembled here from the parent chain. Inactive controls read about 0.05.
# B1: TEV protease; numbered along this chain (parent)
# chain: MGESLFKGPRDYNPISSSICHLTNESDGHTTSLYGIGFGPFIITNKHLFRRNNGTLVVQSLHGVFKVKDTTTLQQHLVDGRDMIIIRMPKDFPPFPQKLKFREPQREERICLVTTNFQTKSMSSMVSDTSCTFPSGDGIFWKHWIQTKDGQCGSPLVSTRDGFIVGIHSASNFTNTNNYFTSVPKNFMELLTNQEAQQWVSGWRLNADSVLWGGHKVFMVKPEEPFQPVKEATQL
# Variants of: B1
# Test: raw area under fraction-flipped curve 0-4 h after induction (AUC4h, not background-subtracted), DNA-recorder readout of cleavage of the substrate (dimensionless); higher = more cleavage of the substrate by the protease variant
# Details: temperature: 34 °C; time window: 0-4 h after rhamnose induction
# Experimental: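 In vivo DNA recorder in E. coli TOP10(DE3) ΔrhaA at 34 °C. Each TEVp single-site mutant (parent TEVp 0) is paired with a single-site variant of the 7-mer TEVs (canonical ENLYFQ|S). The substrate sits between flexible linkers in a Bxb1-sfGFP-TEVs-SsrA fusion, so cleavage stabilises Bxb1 and speeds flipping of a recombination array, read by NGS. The value is the raw area under the fraction-flipped curve over 0-4 h after rhamnose induction (AUC4h), with ≥20 reads per time point. It is not background-subtracted; inactive controls average about 0.047.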
# 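Also: Bxb1 expression induced with 0.2% (w/v) L-rhamnose at OD600 near 0.5, cultures sampled hourly, flipped fraction per protease–substrate barcode pair counted by paired-end Illumina sequencing.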
Variant,area with substrate ENLYFCS,area with substrate ENLYFDS,area with substrate ENLYFES,area with substrate ENLYFFS,area with substrate ENLYFGS,area with substrate ENLYFHS,area with substrate ENLYFIS,area with substrate ENLYFKS,area with substrate ENLYFMS,area with substrate ENLYFNS,area with substrate ENLYFPS,area with substrate ENLYFRS,area with substrate ENLYFSS,area with substrate ENLYFTS,area with substrate ENLYFVS,area with substrate ENLYFYS,area with substrate ENLYFLS,area with substrate ENLYFWS
C111S,0.0629,0.0565,0.0646,0.063,0.0631,0.0855,0.0566,0.0522,0.0649,0.0643,0.0517,0.0777,0.0486,0.0582,0.0853,0.059,–,–
S124P,0.0644,0.0598,0.0653,0.0772,0.0615,0.0615,0.066,0.0825,0.0621,0.0614,0.0544,0.0606,0.0622,0.0545,–,0.0595,0.0544,0.0569
S127G,0.048,0.0611,0.0731,0.0701,0.0443,–,0.0516,0.0623,0.0495,0.0563,0.0596,0.0655,0.0478,0.054,0.0586,0.066,0.0646,0.0697
T132I,0.0461,0.0673,0.0626,0.0607,0.0752,0.0627,–,0.0577,0.0641,0.0616,0.0696,0.0544,0.0419,0.0579,–,–,–,0.0522
F133W,0.0639,0.0567,0.015,0.0664,0.0594,0.0466,0.0444,0.05,0.0627,0.0678,0.0602,0.0719,0.0549,0.0607,0.0605,0.0896,0.0283,0.0723
K142I,0.0501,–,0.0651,0.0686,0.0414,0.0633,0.0572,–,0.0406,0.0596,0.0561,0.0451,0.0697,0.0594,–,0.0325,0.0607,0.0514
Q146M,0.0369,0.0672,0.0698,0.08,–,–,0.0568,0.0518,0.0754,0.0731,0.0534,0.0531,0.0656,0.0648,0.0434,–,0.0611,0.0548
G150V,0.0488,0.0623,0.0659,0.0579,0.062,0.0646,0.0575,0.043,0.0615,–,0.0567,0.0591,0.0668,0.0612,0.0645,0.0484,0.0638,0.0401
S154W,0.0326,–,0.0576,–,0.0559,0.066,0.0473,0.0628,0.0386,0.0669,0.0666,–,–,0.0451,0.0501,–,0.0432,0.056
L156H,0.0519,0.0588,0.0552,0.0766,0.049,0.055,0.0616,0.0823,0.0483,0.0538,0.0519,0.0555,0.0595,0.0569,0.0585,0.0474,0.0394,0.0497
S158G,0.0676,0.0605,0.0535,0.0618,0.0764,0.0574,0.0491,–,0.0662,0.0616,0.0678,0.0606,0.0598,0.0686,0.0615,–,–,0.0578
D161A,0.0409,–,0.053,0.0554,–,0.0774,0.042,0.0449,–,0.0501,0.047,–,0.05,0.0465,0.0057,–,–,0.0396
I164D,0.0716,–,0.061,0.0604,0.0586,0.0615,0.061,0.0486,0.0506,0.0492,0.0161,0.0491,0.052,–,0.0683,0.0544,0.0637,0.0531
S171M,0.0572,–,0.0554,0.0619,0.062,0.0597,0.0606,0.056,0.0595,0.0432,0.072,0.067,–,0.0566,0.0563,0.0624,0.0484,0.0613
T176K,0.0625,0.058,0.0611,–,–,–,0.0644,0.0625,0.0595,–,–,0.0423,–,–,0.0685,0.0841,0.0564,0.069
F187M,0.0467,–,0.0804,0.0691,–,0.0619,0.0511,0.0566,0.0623,0.0544,0.0632,0.0506,–,0.061,0.0624,0.0553,–,0.0289
M188P,0.0524,0.0721,0.056,0.0761,–,–,0.0516,0.0609,0.0532,0.084,–,0.0599,–,0.0575,–,–,0.0651,0.0553
Q194F,0.0417,–,–,0.0485,–,–,0.0526,–,–,–,0.0603,–,0.0585,0.059,0.0502,0.0572,–,0.0623
W203N,0.0578,–,0.0669,–,–,0.0491,0.0574,–,0.0872,0.0624,0.0659,0.0604,–,0.0581,–,0.0411,0.0689,–
V217P,0.0608,0.0639,0.0717,0.0677,0.0567,–,0.0556,–,0.0525,0.0589,0.0593,0.062,–,0.0648,0.0561,0.0476,0.062,0.0564
P222D,0.0568,0.0598,0.062,0.0668,–,0.0574,0.0462,0.0577,–,0.064,0.0672,0.0661,0.0577,0.0573,–,0.0506,–,–
Q227K,0.0576,–,0.0702,0.0907,–,–,0.0547,0.0641,0.0721,0.0653,0.0592,–,0.0554,0.0388,–,0.0535,0.0875,–
V229F,0.0419,0.0487,–,0.0614,0.0605,0.0365,0.0554,0.0616,0.0706,0.0676,–,–,0.0741,0.0563,–,0.0584,0.0502,0.072
K230D,0.0601,–,0.0668,0.0669,0.0659,0.0605,0.0619,0.0623,0.0749,0.0701,0.0539,–,0.0369,0.0473,0.0581,–,–,–
R10M,–,0.0543,0.0713,0.068,–,0.0802,0.059,0.064,–,0.0882,0.0541,–,–,–,0.0514,0.0536,–,0.0532
